Reference: the supplement of paper PMC8728848
The list shows a part of the results.

Key:
Assay in all cases: glycan array binding signal (z-score within array); higher = stronger binding
Conditions in all cases: glycan notation: IUPAC condensed, linker removed
[1] = biological target: Neu5Ac(a2-6)Gal(b1-4)GlcNAc(b1-2)Man(a1-3)[Man(a1-6)]Man(b1-4)GlcNAc(b1-4)GlcNAc
Method in brief: (§1)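 Glycan array data came from 3228 arrays in the Consortium for Functional Glycomics database, and only arrays with an available protein sequence were kept. Glycan names were put into IUPAC-condensed notation, and columns mapping to the same glycan were averaged. The binding signal is a within-array Z-score, averaged across arrays of one protein sequence run at different concentrations or buffers and across linkers. A negative Z-score can be read as non-binding.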

[2] = biological target: Neu5Ac(a2-6)Gal(b1-4)GlcNAc(b1-2)Man(a1-3)[Neu5Ac(a2-3)Gal(b1-4)GlcNAc(b1-2)Man(a1-6)]Man(b1-4)GlcNAc(b1-4)GlcNAc
Method in brief: as §1

[3] = biological target: Neu5Ac(a2-6)Gal(b1-4)GlcNAc(b1-2)Man(a1-3)[Neu5Ac(a2-6)Gal(b1-4)GlcNAc(b1-2)Man(a1-6)]Man(b1-4)GlcNAc(b1-4)GlcNAc
Method in brief: as §1

[4] = biological target: Neu5Ac(a2-6)Gal(b1-4)GlcNAc(b1-2)Man(a1-3)[Neu5Ac(a2-6)Gal(b1-4)GlcNAc(b1-2)Man(a1-6)]Man(b1-4)GlcNAc(b1-4)[Fuc(a1-6)]GlcNAc
Method in brief: as §1

[5] = biological target: Neu5Ac(a2-6)Gal(b1-4)GlcNAc(b1-2)Man(a1-6)Man(b1-4)GlcNAc(b1-4)GlcNAc
Method in brief: as §1

[6] = biological target: Neu5Ac(a2-6)Gal(b1-4)GlcNAc(b1-2)Man(a1-6)[Gal(b1-4)GlcNAc(b1-2)Man(a1-3)]Man(b1-4)GlcNAc(b1-4)GlcNAc
Method in brief: as §1

[7] = biological target: Neu5Ac(a2-6)Gal(b1-4)GlcNAc(b1-2)Man(a1-6)[GlcNAc(b1-2)Man(a1-3)]Man(b1-4)GlcNAc(b1-4)GlcNAc
Method in brief: as §1

[8] = biological target: Neu5Ac(a2-6)Gal(b1-4)GlcNAc(b1-2)Man(a1-6)[Man(a1-3)]Man(b1-4)GlcNAc(b1-4)GlcNAc
Method in brief: as §1

[9] = biological target: Neu5Ac(a2-6)Gal(b1-4)GlcNAc(b1-2)[Neu5Ac(a2-6)Gal(b1-4)GlcNAc(b1-4)]Man(a1-3)[GlcNAc(b1-4)][Neu5Ac(a2-6)Gal(b1-4)GlcNAc(b1-2)[Neu5Ac(a2-6)Gal(b1-4)GlcNAc(b1-6)]Man(a1-6)]Man(b1-4)GlcNAc(b1-4)GlcNAc
Method in brief: as §1

[10] = biological target: Neu5Ac(a2-6)Gal(b1-4)GlcNAc(b1-2)[Neu5Ac(a2-6)Gal(b1-4)GlcNAc(b1-4)]Man(a1-3)[GlcNAc(b1-4)][Neu5Ac(a2-6)Gal(b1-4)GlcNAc(b1-4)Man(a1-6)]Man(b1-4)GlcNAc(b1-4)GlcNAc
Method in brief: as §1

[11] = biological target: Neu5Ac(a2-6)Gal(b1-4)GlcNAc(b1-2)[Neu5Ac(a2-6)Gal(b1-4)GlcNAc(b1-6)]Man(a1-6)[Neu5Ac(a2-6)Gal(b1-4)GlcNAc(b1-2)Man(a1-3)][GlcNAc(b1-4)]Man(b1-4)GlcNAc(b1-4)GlcNAc
Method in brief: as §1

[12] = biological target: Neu5Ac(a2-6)Gal(b1-4)GlcNAc(b1-3)Gal(b1-3)GlcNAc
Method in brief: as §1

[13] = biological target: Neu5Ac(a2-6)Gal(b1-4)GlcNAc(b1-3)Gal(b1-4)GlcNAc
Method in brief: as §1

[14] = biological target: Neu5Ac(a2-6)Gal(b1-4)GlcNAc(b1-3)Gal(b1-4)GlcNAc(b1-2)Man(a1-3)[Neu5Ac(a2-6)Gal(b1-4)GlcNAc(b1-3)Gal(b1-4)GlcNAc(b1-2)Man(a1-6)]GalNAc
Method in brief: as §1

[15] = biological target: Neu5Ac(a2-6)Gal(b1-4)GlcNAc(b1-3)Gal(b1-4)GlcNAc(b1-3)Gal(b1-4)GlcNAc
Method in brief: as §1

[16] = biological target: Neu5Ac(a2-6)Gal(b1-4)GlcNAc(b1-3)Gal(b1-4)GlcNAc(b1-3)Gal(b1-4)GlcNAc(b1-2)Man(a1-3)[Neu5Ac(a2-6)Gal(b1-4)GlcNAc(b1-3)Gal(b1-4)GlcNAc(b1-3)Gal(b1-4)GlcNAc(b1-2)Man(a1-6)]GalNAc
Method in brief: as §1

[17] = biological target: Neu5Ac(a2-6)Gal(b1-4)GlcNAc(b1-3)Gal(b1-4)GlcNAc(b1-3)GalNAc
Method in brief: as §1

[18] = biological target: Neu5Ac(a2-6)Gal(b1-4)GlcNAc(b1-3)Gal(b1-4)GlcNAc(b1-3)[Neu5Ac(a2-6)Gal(b1-4)GlcNAc(b1-3)Gal(b1-4)GlcNAc(b1-6)]GalNAc
Method in brief: as §1

[19] = biological target: Neu5Ac(a2-6)Gal(b1-4)GlcNAc(b1-3)Gal(b1-4)GlcNAc(b1-6)[Gal(b1-3)]GalNAc
Method in brief: as §1

[20] = biological target: Neu5Ac(a2-6)Gal(b1-4)GlcNAc(b1-3)Gal(b1-4)[Fuc(a1-3)]GlcNAc(b1-3)Gal(b1-4)[Fuc(a1-3)]GlcNAc
Method in brief: as §1

[21] = biological target: Neu5Ac(a2-6)Gal(b1-4)GlcNAc(b1-3)GalNAc
Method in brief: as §1

[22] = biological target: Neu5Ac(a2-6)Gal(b1-4)GlcNAc(b1-3)[Neu5Ac(a2-6)Gal(b1-4)GlcNAc(b1-6)]GalNAc
Method in brief: as §1

[23] = biological target: Neu5Ac(a2-6)Gal(b1-4)GlcNAc(b1-6)GalNAc
Method in brief: as §1

[24] = biological target: Neu5Ac(a2-6)Gal(b1-4)GlcNAc(b1-6)[Gal(b1-3)GlcNAc(b1-3)]Gal(b1-4)Glc
Method in brief: as §1

[25] = biological target: Neu5Ac(a2-6)Gal(b1-4)GlcNAc(b1-6)[Gal(b1-3)]GalNAc
Method in brief: as §1

[26] = biological target: Neu5Ac(a2-6)Gal(b1-4)GlcNAc6S
Method in brief: as §1

[27] = biological target: Neu5Ac(a2-6)GalNAc
Method in brief: as §1

[28] = biological target: Neu5Ac(a2-6)GalNAc(b1-4)GlcNAc
Method in brief: as §1

[29] = biological target: Neu5Ac(a2-6)GalNAc(b1-4)GlcNAc6S
Method in brief: as §1

[30] = biological target: Neu5Ac(a2-6)GlcNAc(b1-4)GlcNAc
Method in brief: as §1

[31] = biological target: Neu5Ac(a2-6)GlcNAc(b1-4)GlcNAc(b1-4)GlcNAc
Method in brief: as §1

B1: Epa6 (Candida glabrata), Q6DTM7_CANGB (protein)
chain: MGSSHHHHHHSSGLVPRGSHMKDDYSSSLSNNNLGWTDPTEFPLGCSPNVTTPKNGLSMELYSYDYLKSGSNPCWDAAYLDPNYPRTGYKSHRLLAKVENVAGNINFYYHAPMGCTSLFDTLPQAYNYRTPLTMTNFTMLLYGYFKPKVTGYHTFTISADDLLFVNFGAGNAFDCCKRESSADDFGNYQAYAVWGSQTAKDDLTVHLDAGLYYPIRIFFNNRDNDGALSLTLKTESDPNPVIDFSDYFYSFDDTKDGCPGLVSYDTS
[1]
  glycan array binding signal (z-score): -0.332
[2]
  glycan array binding signal (z-score): -0.318
[3]
  glycan array binding signal (z-score): -0.286
[4]
  glycan array binding signal (z-score): -0.289
[5]
  glycan array binding signal (z-score): -0.309
[6]
  glycan array binding signal (z-score): -0.299
[7]
  glycan array binding signal (z-score): -0.319
[8]
  glycan array binding signal (z-score): -0.356
[9]
  glycan array binding signal (z-score): -0.311
[10]
  glycan array binding signal (z-score): -0.332
[11]
  glycan array binding signal (z-score): -0.33
[12]
  glycan array binding signal (z-score): -0.27
[13]
  glycan array binding signal (z-score): -0.287
[14]
  glycan array binding signal (z-score): -0.152
[15]
  glycan array binding signal (z-score): -0.312
[16]
  glycan array binding signal (z-score): 0.033
[17]
  glycan array binding signal (z-score): -0.305
[18]
  glycan array binding signal (z-score): -0.266
[19]
  glycan array binding signal (z-score): 0.25
[20]
  glycan array binding signal (z-score): -0.333
[21]
  glycan array binding signal (z-score): -0.245
[22]
  glycan array binding signal (z-score): -0.307
[23]
  glycan array binding signal (z-score): -0.318
[24]
  glycan array binding signal (z-score): -0.251
[25]
  glycan array binding signal (z-score): 0.113
[26]
  glycan array binding signal (z-score): -0.323
[27]
  glycan array binding signal (z-score): -0.35
[28]
  glycan array binding signal (z-score): -0.352
[29]
  glycan array binding signal (z-score): -0.286
[30]
  glycan array binding signal (z-score): -0.338
[31]
  glycan array binding signal (z-score): -0.314
